Experimental findings from patent US20260232827A1, “ANTIBODY-DRUG CONJUGATES TARGETING NAPI2B AND METHODS OF USE” (Zymeworks BC Inc., priority 2023, published 2026) are described below.

B1: v29449 (H4L3) (antibody)
heavy: QVQLVQSGAEVKKPGASVKMSCKASGFTFTSYNVHWVRQAPGQGLEWIAAISPGNGDLSYAQKFQGRATLTVDRSTSTAYMELSSLRSEDTAVYYCARGRTGMGAVDYWGQGTLVTVSS[human IgG1 constant region skipped]
light: DVQMTQSPSSLSASVGDRVTITCRASQDVYSYLNWYQQKPGKAVKLLIYYTSRLQSGVPSRFSGSGSGTDYTLTISSLQPEDIATYYCQQYNIFPWTFGQGTKLEIKRTVAAPSVFIFPPSDEQLKSGTASVVCLLNNFYPREAKVQWKVDNALQSGNSQESVTEQDSKDSTYSLSSTLTLSKADYEKHKVYACEVTHQGLSSPVTKSFNRGEC
B2: v29459 (H2L1) (antibody)
heavy: QVQLVQSGAEVKKPGASVKVSCKASGFTFTSYNVHWVRQAPGQGLEWIAAISPGNGDLSYAQKFQGRVTMTVDTSTSTVYMELSSLRSEDTAVYYCARGRTGMGAVDYWGQGTLVTVSS[human IgG1 constant region skipped]
light: DIQMTQSPSSLSASVGDRVTITCRASQDVYSYLNWYQQKPGKAPKLLIYYTSRLQSGVPSRFSGSGSGTDFTLTISSLQPEDFATYYCQQYNIFPWTFGQGTKLEIKRTVAAPSVFIFPPSDEQLKSGTASVVCLLNNFYPREAKVQWKVDNALQSGNSQESVTEQDSKDSTYSLSSTLTLSKADYEKHKVYACEVTHQGLSSPVTKSFNRGEC
B3: v29451 (H2L3) (antibody)
heavy: QVQLVQSGAEVKKPGASVKVSCKASGFTFTSYNVHWVRQAPGQGLEWIAAISPGNGDLSYAQKFQGRVTMTVDTSTSTVYMELSSLRSEDTAVYYCARGRTGMGAVDYWGQGTLVTVSS[human IgG1 constant region skipped]
light: DVQMTQSPSSLSASVGDRVTITCRASQDVYSYLNWYQQKPGKAVKLLIYYTSRLQSGVPSRFSGSGSGTDYTLTISSLQPEDIATYYCQQYNIFPWTFGQGTKLEIKRTVAAPSVFIFPPSDEQLKSGTASVVCLLNNFYPREAKVQWKVDNALQSGNSQESVTEQDSKDSTYSLSSTLTLSKADYEKHKVYACEVTHQGLSSPVTKSFNRGEC
B4: v29457 (H4L1) (antibody)
heavy: QVQLVQSGAEVKKPGASVKMSCKASGFTFTSYNVHWVRQAPGQGLEWIAAISPGNGDLSYAQKFQGRATLTVDRSTSTAYMELSSLRSEDTAVYYCARGRTGMGAVDYWGQGTLVTVSS[human IgG1 constant region skipped]
light: DIQMTQSPSSLSASVGDRVTITCRASQDVYSYLNWYQQKPGKAPKLLIYYTSRLQSGVPSRFSGSGSGTDFTLTISSLQPEDFATYYCQQYNIFPWTFGQGTKLEIKRTVAAPSVFIFPPSDEQLKSGTASVVCLLNNFYPREAKVQWKVDNALQSGNSQESVTEQDSKDSTYSLSSTLTLSKADYEKHKVYACEVTHQGLSSPVTKSFNRGEC
B5: v29460 (H1L1) (antibody)
heavy: QVQLVQSGAEVKKPGASVKVSCKASGFTFTSYNVHWVRQAPGQGLEWMGAISPGNGDLSYAQKFQGRVTMTRDTSTSTVYMELSSLRSEDTAVYYCARGRTGMGAVDYWGQGTLVTVSS[human IgG1 constant region skipped]
light: DIQMTQSPSSLSASVGDRVTITCRASQDVYSYLNWYQQKPGKAPKLLIYYTSRLQSGVPSRFSGSGSGTDFTLTISSLQPEDFATYYCQQYNIFPWTFGQGTKLEIKRTVAAPSVFIFPPSDEQLKSGTASVVCLLNNFYPREAKVQWKVDNALQSGNSQESVTEQDSKDSTYSLSSTLTLSKADYEKHKVYACEVTHQGLSSPVTKSFNRGEC
B6: v29450 (H3L3) (antibody)
heavy: QVQLVQSGAEVKKPGASVKMSCKASGFTFTSYNVHWVRQAPGQGLEWIAAISPGNGDLSYAQKFQGRATLTVDTSTSTAYMELSSLRSEDTAVYYCARGRTGMGAVDYWGQGTLVTVSS[human IgG1 constant region skipped]
light: DVQMTQSPSSLSASVGDRVTITCRASQDVYSYLNWYQQKPGKAVKLLIYYTSRLQSGVPSRFSGSGSGTDYTLTISSLQPEDIATYYCQQYNIFPWTFGQGTKLEIKRTVAAPSVFIFPPSDEQLKSGTASVVCLLNNFYPREAKVQWKVDNALQSGNSQESVTEQDSKDSTYSLSSTLTLSKADYEKHKVYACEVTHQGLSSPVTKSFNRGEC
B7: v29458 (H3L1) (antibody)
heavy: QVQLVQSGAEVKKPGASVKMSCKASGFTFTSYNVHWVRQAPGQGLEWIAAISPGNGDLSYAQKFQGRATLTVDTSTSTAYMELSSLRSEDTAVYYCARGRTGMGAVDYWGQGTLVTVSS[human IgG1 constant region skipped]
light: DIQMTQSPSSLSASVGDRVTITCRASQDVYSYLNWYQQKPGKAPKLLIYYTSRLQSGVPSRFSGSGSGTDFTLTISSLQPEDFATYYCQQYNIFPWTFGQGTKLEIKRTVAAPSVFIFPPSDEQLKSGTASVVCLLNNFYPREAKVQWKVDNALQSGNSQESVTEQDSKDSTYSLSSTLTLSKADYEKHKVYACEVTHQGLSSPVTKSFNRGEC

The test deals with T1, NaPi2b on IGROV-1 cells (Homo sapiens, UniProt O95436).
T1 construct: IGROV-1 cells express endogenous NaPi2b at a high level; endogenous in cells; host or cells: IGROV-1
T1 sequence (O95436 1-690): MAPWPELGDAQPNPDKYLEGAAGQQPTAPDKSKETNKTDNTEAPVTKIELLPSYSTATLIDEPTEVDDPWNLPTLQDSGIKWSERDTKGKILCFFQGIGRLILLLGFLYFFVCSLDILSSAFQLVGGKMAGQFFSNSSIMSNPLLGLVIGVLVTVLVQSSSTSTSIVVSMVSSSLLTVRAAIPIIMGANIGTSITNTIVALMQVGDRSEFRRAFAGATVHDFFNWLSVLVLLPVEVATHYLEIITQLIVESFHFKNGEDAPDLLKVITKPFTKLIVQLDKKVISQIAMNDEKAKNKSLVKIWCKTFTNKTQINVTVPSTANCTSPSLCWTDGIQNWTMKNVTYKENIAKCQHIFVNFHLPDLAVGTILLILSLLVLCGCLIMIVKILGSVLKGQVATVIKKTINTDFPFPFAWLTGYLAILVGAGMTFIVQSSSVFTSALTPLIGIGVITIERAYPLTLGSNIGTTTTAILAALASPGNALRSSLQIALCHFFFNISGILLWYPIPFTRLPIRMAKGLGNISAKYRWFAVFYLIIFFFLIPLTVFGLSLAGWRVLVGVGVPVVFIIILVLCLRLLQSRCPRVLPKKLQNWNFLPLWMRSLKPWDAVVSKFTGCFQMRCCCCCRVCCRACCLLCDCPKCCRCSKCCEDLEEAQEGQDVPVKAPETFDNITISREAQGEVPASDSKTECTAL
The test can be described thus: Cellular binding by flow cytometry. The following applies: 24 hours at 4° C. As for the experimental part:
IGROV-1 cells express endogenous NaPi2b at a high level.
Briefly, cells were seeded at 50,000 cells/well in conical-bottom 96-well plates and treated with test antibody for 24 hours at 4° C. to prevent internalization. […] Following incubation and washing, fluorescence was detected by flow cytometry on a BD LSRFortessa™ Cell Analyzer (BD Biosciences, Franklin Lake, NJ) with 1,000 minimum events collected per well.
(§1) Cells were maintained under standard culture conditions (37° C./5% CO2) until assay set-up; IGROV-1 cells were cultured in RPMI 1640, ATCC modification (Thermo Fisher Scientific, Waltham, MA) supplemented with 10% fetal bovine serum (Thermo Fisher Scientific, Waltham, MA); OVCAR-3 cells were cultured in RPMI 1640, ATCC modification (Thermo Fisher Scientific, Waltham, MA) supplemented with 20% fetal bovine serum (Thermo Fisher Scientific, Waltham, MA), and 0.01 μg/mL human insulin (Sigma-Aldrich, Oakville, Canada); Cells were removed from culture vessels using Cell Dissociation Buffer (Invitrogen, Waltham, MA), seeded at 50,000 cells/well in conical-bottom 96-well plates, and treated with test antibody or antibody-drug conjugate for 24 hours at 4° C. to prevent internalization. […] Following incubation and washing, fluorescence was detected by flow cytometry on a BD LSRFortessa™ Cell Analyzer (BD Biosciences, Franklin Lake, NJ) with 1,000 minimum events collected per well.
as §1, with “set-up. IGROV-1, HCC-78, H441 and EBC-1” for “set-up; IGROV-1”, “MA).” for “MA); OVCAR-3 cells were cultured in RPMI 1640, ATCC modification (Thermo Fisher Scientific, Waltham, MA) supplemented with 20% fetal bovine serum (Thermo Fisher Scientific, Waltham, MA), and 0.01 μg/mL human insulin (Sigma-Aldrich, Oakville, Canada);”
Regarding B1, the “Bmax IGROV-1” value is recorded as 44,460 and the “Curve Hill Slope (h) IGROV-1” value was 1.3.

As for B2, the “Bmax IGROV-1” value is 40,941 and the “Curve Hill Slope (h) IGROV-1” value worked out at 1.2.

With B3, the “Bmax IGROV-1” value is given as 46,170 and the “Curve Hill Slope (h) IGROV-1” value came to 1.1.

On to B4, for which the “Bmax IGROV-1” value is given as 44,539 and the “Curve Hill Slope (h) IGROV-1” value is on record as 1.0.

In the case of B5, the “Bmax IGROV-1” value is 40,071 and the “Curve Hill Slope (h) IGROV-1” value turned out to be 1.2.

For the molecule B6, the “Bmax IGROV-1” value is 43,809 and the “Curve Hill Slope (h) IGROV-1” value is 1.2.

On to B7, for which the “Bmax IGROV-1” value is listed as 40,793 and the “Curve Hill Slope (h) IGROV-1” value is 1.1.
